Measurements published in patent publication EP0104070A2, “Fungicidal N-phenylcarbamates” (priority 1982, dated 1984).

Assays:
[1] = tested on: mixed spore suspension of the drug-resistant and drug-sensitive strain of Sphaerotheca fuliginea; test: Preventive effect on powdery mildew of cucumber, mixed inoculum, sole and combined use (Experiment 10); conditions: cucumber seedlings, sole use, mixed resistant and sensitive strains
[2] = tested on: mixed spore suspension of the drug-resistant and drug-sensitive strain of Botrytis cinerea; test: Preventive effect on gray mold of tomato, mixed inoculum, sole and combined use (Experiment 11); conditions: tomato seedlings, sole use, mixed resistant and sensitive strains
Protocol: Preventive effect on gray mold of tomato (Botrytis cinerea):-
Then, the seedlings were inoculated with a mixed spore suspension of the drug-resistant and drug-sensitive strain of Botrytis cinerea by spraying and placed at 20°C in a room of high humidity for 5 days.

| SMILES | Prevention value (%) ([1]; 20 ppm active ingredient) | Prevention value (%) ([1]; 100 ppm active ingredient) | Prevention value (%) ([2]; 10 ppm active ingredient) | Prevention value (%) ([2]; 50 ppm active ingredient) | Prevention value (%) ([2]; 20 ppm active ingredient) | Prevention value (%) ([2]; 100 ppm active ingredient) | Prevention value (%) ([1]; 500 ppm active ingredient) |
| --- | --- | --- | --- | --- | --- | --- | --- |
| CCOc1c(Cl)cc(NC(=S)OC)cc1COC [Compound No. 13] | 0 | 44 | 0 | 40 |  |  |  |
| COC(=O)NC(=S)Nc1ccccc1NC(=S)NC(=O)OC [E] | 8 | 44 |  |  |  |  |  |
| CC(C)NC(=O)N1CC(=O)N(c2cc(Cl)cc(Cl)c2)C1=O [Compound J] |  |  |  |  | 14 | 42 |  |
| c1coc(-c2nc3ccccc3[nH]2)c1 [D] |  | 0 |  |  |  |  | 34 |
| CCCCNC(=O)n1c(NC(=O)OC)nc2ccccc21 [A] | 10 | 42 |  |  |  |  |  |
| CCOc1c(C)cc(NC(=S)OCCF)cc1C [Compound No. 9] | 0 | 42 | 0 | 42 |  |  |  |
| CC12CC1(C)C(=O)N(c1cc(Cl)cc(Cl)c1)C2=O (centres unmarked) [Compound I] |  |  |  |  | 16 | 46 |  |
| COC(=O)Nc1nc2ccccc2[nH]1 [C] | 10 | 42 |  |  |  |  |  |
| CCOC(=O)NC(=S)Nc1ccccc1NC(=S)NC(=O)OCC [F] | 6 | 42 |  |  |  |  |  |
| C=CC1(C)OC(=O)N(c2cc(Cl)cc(Cl)c2)C1=O (centres unmarked) [Compound K] |  |  |  |  | 8 | 40 |  |
| c1ccc2[nH]c(-c3cscn3)nc2c1 [B] |  | 8 |  |  |  |  | 42 |
| CCOc1c(Cl)cc(NC(=S)OC(C)C)cc1COC [Compound No. 14, (3-chloro-4-ethoxy-5-methoxymethyl)thiocarbanilic acid O-isopropyl ester] | 0 | 42 | 0 | 44 |  |  |  |
| CCOC(=O)C1(C)OC(=O)N(c2cc(Cl)cc(Cl)c2)C1=O (centres unmarked) [L] |  |  |  |  | 8 | 38 |  |
